± gives the standard deviation of the averaged measurements. The list shows a part of the results.

For the assay, the system named is PfAP2-EXP AP2 domain (GST-tagged). In words: gcPBM binding intensity (ln(normalized median fluorescence intensity)); higher = stronger DNA binding. The method in brief: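 After 1 h on an Agilent 4 × 180k array of primer-extended double-stranded 36-bp intergenic genomic probes and negative controls, bound GST-tagged P. falciparum DNA-binding domains were detected with Alexa488 anti-GST antibody and scanned at 488 nm. The domains had been expressed in E. coli, and binding took place in 1× PBS with 1% milk, 0.2 mg/ml BSA, 0.5% salmon testes DNA and 0.03% Triton X-100. Binding intensity is the highest Masliner-normalised natural-log median intensity across replicate spots of either probe orientation.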
Take “TTTTTTTTTTTTTCAAGTACATAACTTACCCCTTTT [XGTACX_site6207]”: the “gcPBM binding intensity (ln)” value was found to be 8.53 ± 0.42. The same measure for “TTATATGCATAAAAACGTACAAAAATGTATTCATGT [XGTACX_site2215]”: 8.71 ± 0.38; for “GTTATAGAAGCATTCACACACACACCCACATACACA [CACACA_site1465]”: 8.94 ± 0.68. The result for “TTACATAATATATGTACACACGCAAATACTTAGAAT [CACACA_site320]” reads 8.72 ± 0.38; that for “GAATGTTAACGTTGCACACAAAAAAAAAGTATACAT [CACACA_site2415]”, 8.81 ± 0.58. The same measure for “AAACGATTACTGTGTACACACATAGTTATAAACATA [CACACA_site5195]”: 8.62 ± 0.33. Take “AGGATATGCAGACACACACACATATATATATATATA [CACACA_site2201]”: the “gcPBM binding intensity (ln)” value was 10.3 ± 0.41.

As to “TTTTTTAATAATAGGAAAATGAATATTATATCGAAT [TGCATGCA_negctrl_site543]”, the “gcPBM binding intensity (ln)” value came out at 8.42 ± 0.34. In the case of “TTATATATTTATATTTGTACGTATAAATTTTTTTTT [XGTACX_site2833]”, the “gcPBM binding intensity (ln)” value was found to be 8.45 ± 0.32. The same measure for “ATATATGTGTATGTATGTACTCATTTTTGTATATAT [XGTACX_site490]”: 8.42 ± 0.28; for “AAACAAAGAAAGAACACACATACACAATATACCTAC [CACACA_site2835]”: 8.81 ± 0.63; for “ATAATGATATATTATAAACACACAAAGATGAATATA [CACACA_site8914]”: 8.57 ± 0.4. Turning to “TATTTTGAAAAAGTTGCACACAAAATTTAAAAAAAA [CACACA_site8470]”, the “gcPBM binding intensity (ln)” value was 8.36 ± 0.39.

Take “CATTTAAATTATAAGTGTACACGATCATATTTCATC [XGTACX_site349]”: the “gcPBM binding intensity (ln)” value worked out at 8.89 ± 0.5. The result for “TATATATATATATATGTACACACATATATACCTTTC [CACACA_site8854]” reads 10.2 ± 0.26; that for “AAATAAAAACATAACAGTACAGTTAACATTTTTATA [XGTACX_site3479]”, 8.29 ± 0.35; that for “CCAACATTTTTTAGAAGTACATTTTTATATTTATTA [XGTACX_site5179]”, 8.31 ± 0.26. The same measure for “TGTAATAATCTTACATGTACATACATATATTATATA [XGTACX_site4012]”: 8.7 ± 0.32. The same measure for “AGGTACTTTTTTAAAACACACATATAATATATACAC [CACACA_site1065]”: 8.63 ± 0.3. In the case of “GATGGAAGGTGAAAGCGTACTTATTATAGTAATATA [XGTACX_site303]”, the “gcPBM binding intensity (ln)” value was 8.71 ± 0.47. The result for “TACATTCATGTGTATTGTACAAACTATTTTATAATA [XGTACX_site7744]” reads 8.49 ± 0.45; that for “ACAATCCTAACGACATGTACAAATATATATATTTTT [XGTACX_site7335]”, 8.55 ± 0.56. The same measure for “TACATATTTTTTATGTGTACATATTTTTTATGTGTA [XGTACX_site443]”: 8.27 ± 0.16; for “GCATATTTTATAATTTTACACACCATATAAAATAAT [CACACA_site8904]”: 8.77 ± 0.43; for “TATATAATATATATAGTGCATAAGTTCAAAAGAATA [GTGCAC_site9805]”: 8.64 ± 0.13.

In the case of “TATATTTATTTATACACATGCATATTTTAAGGGCTC [TGCATGCA_site885]”, the “gcPBM binding intensity (ln)” value was 8.72 ± 0.4. The same measure for “ATTTATTTATTTATTTGTACATATAAATATATCAAA [XGTACX_site7383]”: 8.46 ± 0.18; for “AGTATACAGATATATACACACATATATTTATTTATA [CACACA_site6279]”: 8.29 ± 0.46. The same measure for “CATATAATTATATATCGTACATATTAATATAATTAC [XGTACX_site401]”: 8.55 ± 0.33; for “AAAGATGTTATATATATGTATATATATATGTAATAT [TGCATGCA_negctrl_site386]”: 8.29 ± 0.33; for “AGATATAGGAAAATAATATATATATATTTTTTTTTT [CACACA_negctrl_site461]”: 8.06 ± 0.42. The result for “ATATATATATATATATGTACTTATAAGGTATATTTA [XGTACX_site3327]” reads 10 ± 0.59; that for “AAAAAAAAATAAATAAATATATATAATATTTATGTT [GTGCAC_negctrl_site520]”, 8.1 ± 0.37; that for “TTATAATCCATAATTGCACACAATATATTCATATTT [CACACA_site3916]”, 8.54 ± 0.2. Take “AATATACAATAAAGGTGTACACATATATGATGCAAG [XGTACX_site7607]”: the “gcPBM binding intensity (ln)” value turned out to be 9.22 ± 0.43. The same measure for “AAAAAGAAAAAACTTACACACATATATACAGACATG [CACACA_site550]”: 8.51 ± 0.28; for “AACAAATAAATAAATAAAAAGCAAATATGTCTATAT [GTGCAC_negctrl_site414]”: 8.84 ± 0.48; for “ATAAAATAAGATCTTTTTTTTTTTTTTTTCTTTTCT [XGTACX_negctrl_site73]”: 8.14 ± 0.69. The result for “TGGTTAATATGTGAAAGTACATATTATATTAAAATG [XGTACX_site2636]” reads 8.49 ± 0.34; that for “TACAGATAATATATTGCACACGTCAGAATAATATAG [CACACA_site5036]”, 8.73 ± 0.33. The result for “TATAACTTTTTTATTACACACCTATGCAATATTATA [CACACA_site6570]” reads 8.62 ± 0.47. For the sequence “TTTTTTTTTTTTTTTGCACACAGGGTGTAGGACAAG [CACACA_site2842]”, the “gcPBM binding intensity (ln)” value came to 8.6.

Turning to “ATATATATATTCCACACACACACAAAAAAAAAAAAA [CACACA_site3648]”, the “gcPBM binding intensity (ln)” value came out at 9.07 ± 0.23. The same measure for “CATTTGATAAGATACACACACAAGGAAAAAAATAAA [CACACA_site350]”: 8.82 ± 0.57; for “TATAATAATATTAACACACGTACAAAAGCAAACAAC [CACACA_site3494]”: 9.46 ± 0.51; for “TTATAATATCTATATATCTTTTACATTTATAAGTTT [CACACA_negctrl_site1473]”: 8.34 ± 0.28. The same measure for “GTCTATTCAAAAAAGTGTACGGACATATAAACATAC [XGTACX_site6516]”: 9.04 ± 0.28; for “TTAGCTATGATATATACACACCAACGAACGAAGAAA [CACACA_site6657]”: 8.85 ± 0.54; for “TATGGTGTAATTTAGTGTATTATATTATTTTGGTTG [GTGCAC_negctrl_site445]”: 8.67 ± 0.14. The result for “TGCAGTCTGGAGAAAAGTACATAGTATCTGGTATCT [XGTACX_site2545]” reads 8.49 ± 0.23; that for “CTGTATTCATAATTCACACAAATGGTTTATATGAAT [CACACA_site4315]”, 8.5 ± 0.31. Turning to “TATATATATATATACACACACACACCCATATATATA [CACACA_site2538]”, the “gcPBM binding intensity (ln)” value was found to be 10.2 ± 0.24. The same measure for “CATATTTGCACTTTCACACATAAATATATAACTATA [CACACA_site6016]”: 8.91 ± 0.31; for “CATACATACAGATATACACACATATATAATAATATA [CACACA_site5477]”: 8.62 ± 0.31.

As to “TTTTTATTTTTGTAGTGTACTTTATTTTTTTTGTTT [XGTACX_site8887]”, the “gcPBM binding intensity (ln)” value stood at 8.71 ± 0.42. The result for “TTTAAACAAGGATCCACACACCCCAAAAAAAAAAGA [CACACA_site680]” reads 9.24 ± 0.76; that for “CAAAAGTATAATAATACACACACTTTAAAAGTTAAA [CACACA_site3343]”, 8.48 ± 0.37. As for “AAAAATAAAATAAAATAAAATAAACATACCATATGT [CACACA_negctrl_site594]”, the “gcPBM binding intensity (ln)” value was 8.55 ± 0.29. For TAGATTCTTGAATAAGTGCAAAATATAATATTTATT, the “gcPBM binding intensity (ln)” value stood at 8.51 ± 0.29. “TTACAAATGGTTTACACACACATAATTGTATCAATT [CACACA_site4167]”: the “gcPBM binding intensity (ln)” value came out at 8.52 ± 0.36. The same measure for “TAATATATGAGAAATTGTACAGAAAGGAATATGCTT [XGTACX_site5300]”: 8.85 ± 0.45. The same measure for “ATATTATTGTAGAAATGTACATATATATATATATAT [XGTACX_site1882]”: 10.1 ± 0.29. The result for “AAGAAATATTTATACACACACACAAACATATATATA [CACACA_site1912]” reads 8.77 ± 0.47; that for “TATATATGTTCAATATGTACATATATATAAGTGTAT [XGTACX_site5157]”, 8.52 ± 0.4; that for “AATACACAAATATATTGTACATATATATATATATAT [XGTACX_site2440]”, 9.85 ± 0.34. With “CATATATAAATATAAATATATATATATATATATATG [XGTACX_negctrl_site493]”, the “gcPBM binding intensity (ln)” value worked out at 8.4 ± 0.13. In the case of “ACTTATTATTAATATTGTACTCTTGAAAATTGTGGA [XGTACX_site6315]”, the “gcPBM binding intensity (ln)” value came out at 8.47 ± 0.13. The result for “ATATATATTTTTTAAACACACACATAAATATTTGTG [CACACA_site8936]” reads 8.56 ± 0.47; that for “TATATATATATATGTGCATGTTCCCCATGCTTCCAT [TGCATGCA_site366]”, 10.1 ± 0.38. The result for “AAAATTATAATAATATGTACTTAAAAAATTTATATA [XGTACX_site632]” reads 8.16 ± 0.3; that for “TATATGTATTTATATACACACATATTCTTTTGACAC [CACACA_site1206]”, 8.43 ± 0.37.

For the sequence “AATATATATATATATAGTACATATTTTTATTCATTA [XGTACX_site2156]”, the “gcPBM binding intensity (ln)” value was found to be 8.32 ± 0.27. As to “ATATATATATATATATGTACATATGTATATTTTTTT [XGTACX_site1299]”, the “gcPBM binding intensity (ln)” value is 10.1 ± 0.3.

For “TTCTTCAAGGAAAACACATGCGCATTTTCACCAATT [TGCATGCA_site11]”, the “gcPBM binding intensity (ln)” value worked out at 9.09 ± 0.29.

Regarding “AATTATTTACCCTATACACACAAAACACGCTAAAAA [CACACA_site1211]”, the “gcPBM binding intensity (ln)” value worked out at 8.79 ± 0.43. The result for “ATATTATAATAAATGTGTACATATTGTAGAAATATT [XGTACX_site8101]” reads 8.7 ± 0.27; that for “TATTATATATTAAATGCATGTAAAAATAATATTAAA [TGCATGCA_site643]”, 9.24 ± 0.44; that for “ATTTTGTGCGCACACACATGCAAAAAGAAATATGAT [TGCATGCA_site261]”, 9.27 ± 0.15.

With “AAAGAGAGTATCTAATGTACGTATGTATGTATATAT [XGTACX_site1780]”, the “gcPBM binding intensity (ln)” value turned out to be 8.79 ± 0.33.

For “TCACATACATGAAAATGTACTTTTATAATTCCATAA [XGTACX_site1836]”, the “gcPBM binding intensity (ln)” value was found to be 8.32 ± 0.33.

With “TATGACCTTAGAAATTGTACAAGAAAAAATGTTACA [XGTACX_site7084]”, the “gcPBM binding intensity (ln)” value worked out at 8.79 ± 0.39.

Regarding “GTTATAAATAAATACACACATACAAAAATATGACGT [CACACA_site1154]”, the “gcPBM binding intensity (ln)” value is 8.5 ± 0.44. Take “ATATAAAATACATGGGTGCAATATATTAAACAAATA [GTGCAC_site9421]”: the “gcPBM binding intensity (ln)” value came to 9.33 ± 0.18. As for “ATCGTGAATAATATCTGTACATATGAACACATATAT [XGTACX_site952]”, the “gcPBM binding intensity (ln)” value was found to be 8.64 ± 0.32.

On to “TAAAGGTGAACAATACGTACATAAGAACTTATGAGG [XGTACX_site4216]”, for which the “gcPBM binding intensity (ln)” value was determined as 8.8 ± 0.38. The same measure for “TAAATAATTTCACGAATGACAAAGATATAATAAGTT [CACACA_negctrl_site1430]”: 8.63 ± 0.41; for “TCTGTAAATACGTGCACACACAAATCACAAATGTGA [CACACA_site330]”: 8.95 ± 0.25; for “ATAAATACACACAAGTGTACATACTTCTATAAATAT [XGTACX_site1845]”: 8.32 ± 0.22.

For the origin of these results see the supplement of paper PMC11417369.
